Assay results reported in PubChem BioAssay AID488969 (Vanderbilt High Throughput Screening Facility, 2010).
Over roughly 110,000 compounds, “z-score” has its median near -0.1; the highest 2% begin near 2. The list shows a part of the results.

These molecules were tested against Metabotropic glutamate receptor 8 (Rattus norvegicus) (UniProt P70579) (assay: rat mGluR8 modulators via GIRK flux, primary screen, cell-based, thallium flux, HTS (AID 488969)). Conditions: HEK293 rat mGluR8, GIRK (G protein-gated inwardly rectifying potassium channel) thallium flux, FluoZin2; at 10 µM; stronger effect = higher value; submaximal glutamate (EC20) added with thallium.
Chain of UniProt P70579 (P70579 whole entry, looked up): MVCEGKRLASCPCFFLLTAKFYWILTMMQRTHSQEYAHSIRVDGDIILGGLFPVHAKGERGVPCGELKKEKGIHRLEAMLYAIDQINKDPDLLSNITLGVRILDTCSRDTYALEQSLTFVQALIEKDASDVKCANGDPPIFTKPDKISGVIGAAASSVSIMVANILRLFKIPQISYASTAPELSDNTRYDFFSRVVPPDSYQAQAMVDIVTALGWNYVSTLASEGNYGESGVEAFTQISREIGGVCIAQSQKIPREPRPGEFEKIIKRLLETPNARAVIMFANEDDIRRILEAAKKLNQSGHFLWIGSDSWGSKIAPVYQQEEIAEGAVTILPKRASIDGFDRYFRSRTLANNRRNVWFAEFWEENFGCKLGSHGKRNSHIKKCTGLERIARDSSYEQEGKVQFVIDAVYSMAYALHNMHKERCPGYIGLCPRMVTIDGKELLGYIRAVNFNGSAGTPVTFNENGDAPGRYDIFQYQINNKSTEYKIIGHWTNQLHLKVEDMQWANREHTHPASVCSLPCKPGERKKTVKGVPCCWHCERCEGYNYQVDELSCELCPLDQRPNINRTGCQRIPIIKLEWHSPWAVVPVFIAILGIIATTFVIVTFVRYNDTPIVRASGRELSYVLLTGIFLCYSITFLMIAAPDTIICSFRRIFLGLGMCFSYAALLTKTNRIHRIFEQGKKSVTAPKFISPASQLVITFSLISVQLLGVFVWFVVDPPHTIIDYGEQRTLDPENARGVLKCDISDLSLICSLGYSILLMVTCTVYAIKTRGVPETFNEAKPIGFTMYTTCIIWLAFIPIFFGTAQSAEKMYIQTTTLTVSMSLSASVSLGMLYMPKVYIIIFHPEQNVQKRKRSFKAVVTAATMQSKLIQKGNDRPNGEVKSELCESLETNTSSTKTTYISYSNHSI

Structure (SMILES) | z-score
Cc1nnc(SCCCn2c(N3CCCCC3)nc3c2c(=O)[nH]c(=O)n3C)s1 | 0.119
CCOc1ccc(-c2nc(N)ncc2Oc2cccc(OC)c2)c(O)c1 | -0.156
Cc1c(C(=O)OCC(=O)N2CC(C)OC(C)C2)oc2ccc(Br)cc12 (centres undefined) | -0.32
O=C(C1CC1)N1CCC(c2nc(-c3ccc(S(=O)(=O)NCC4CCCO4)cc3)no2)CC1 (centres undefined) | 1
COc1ccccc1OCC(=O)Nc1ccc(S(=O)(=O)Nc2nc(C)cc(C)n2)cc1 | 0.305
COc1ccc(CSc2nc(N3CCOCC3)c3c(c2C#N)CC(C)(C)OC3)cc1 | -0.283
COc1ccc(Cl)cc1NC(=O)CCCN1C(=O)CCC1=O | 0.187
COc1ccc(OC)c(-n2nnnc2SCC(=O)NCc2ccc3c(c2)OCO3)c1 | 0.833
Cc1ccccc1N1CCN(C(=O)c2ccc(Oc3ccc(C(F)(F)F)cn3)cc2)CC1 | -0.869
CCS(=O)(=O)N1CCN(C(=O)c2ccccc2)CC1 | -0.177
COc1cc2c(cc1OC)C(C(=O)Nc1ccccn1)C(c1cccnc1)N(C)C2=O (centres undefined) | -1.51
CCc1nnc(NC(=O)CSc2nnc(C)n2CC2CCCO2)s1 (centres undefined) | 0.247
O=C(Nc1ccc(N2CCOCC2)cc1N1CCOCC1)c1ccco1 | -0.133
Cc1cc2c(cc1C)CSC(c1ccccc1OC(=O)C(C)(C)C)SC2 | -0.288
Cc1ccc(C(=O)NCCn2cc(SCC(=O)Nc3nnc(C)s3)c3ccccc32)cc1 | -0.392
O=C(Nc1cccc(-c2nc3ccccc3[nH]2)c1)c1ccco1 | -0.153
CCc1nn2cc(C(=O)c3cc(C)ccc3O)cnc2c1-c1ccc(F)cc1 | -0.233
c1ccc(C[n+]2c(-c3ccccc3)csc2Nc2ccccc2)cc1 | 0.0215
COc1ccc(NC(=O)CSc2nnc(CNC(=O)COc3ccc(Cl)cc3)o2)c(OC)c1 | 0.364
CCCCOc1ccc(-c2csc(N)n2)cc1[N+](=O)[O-] | 0.438
Fc1ccccc1/C=N/n1cnnc1 | -0.117
CCOC(=O)/C(C#N)=C/c1ccc(OCC(=O)Nc2ccc(C)c(C)c2)c(OC)c1 | 0.0303

Structure (SMILES) | z-score
CCCCC(NS(=O)(=O)c1ccc(C)cc1)C(=O)Oc1ccc2c3c(c(=O)oc2c1)CCC3 (centres undefined) | -0.0734
COc1ccc2c(c1)sc(N)[n+]2Cc1cc(C)cc2cccnc12 | 0.488
CC(=O)N=C1SC2CS(=O)(=O)CC2N1c1ccc(-c2nc3ccc(C)cc3s2)cc1 (centres undefined) | 0.0589
CCOc1cc(C)c(C(C)C)cc1S(=O)(=O)N1CC(C)OC(C)C1 (centres undefined) | 0.134
Cc1ccc(S(=O)(=O)/C(C#N)=C/c2c[nH]c3ccccc23)cc1 | -0.538
COc1ccccc1C(=O)Nc1ccc(N2CCCCC2)cc1 | -0.274
COc1ccc(NC(=S)N/N=C2\CC(C)(C)Oc3ccc(O)cc32)cc1 | 1.79
CCOC(=O)C1CCN(S(=O)(=O)c2ccc3c4c(cccc24)C(=O)N3)CC1 | 0.103
CCOC(=O)c1cc(CC)sc1NC(=O)COC | -2.4
Cc1nc(NC(=O)CSc2nnc(-c3ccccc3)c(-c3ccccc3)n2)c(Cl)cc1Cl | -0.0779
CCCC1CC(=O)OC1(C)C(=O)CSc1n[nH]c(-c2ccccc2)n1 (centres undefined) | -1.1
Cc1ccc(C(=O)O/N=C\c2ccc(N3CCCCC3)c([N+](=O)[O-])c2)cc1 | 0.106
COc1ccc(Cl)cc1-c1n[nH]c(=S)n1C1CCCCC1 | 1.13
COc1cccc(OCc2nc3ccccc3c(=O)n2N)c1 | 0.478
Cn1cc(S(=O)(=O)Nc2cccc(F)c2)c(=O)n(C)c1=O | 0.175
CC(C)(C)NC(=O)c1cccc(NC(=O)CSc2ccccc2)c1 | -0.313
CC(=O)NS(=O)(=O)c1ccc(N=c2ssc3c2-c2ccc(C)cc2NC3(C)C)cc1 | 0.411
O=C(/C=C/c1c[nH]c2ccccc12)c1cccc2ccccc12 | -0.225
Cc1nc2c([nH]c3ccc(Br)cc32)s1 | -0.064
COc1ccc(Cl)cc1NC(=O)N1CCN(CCc2ccccc2)CC1 | -1.75
Cc1ccc(C)c(Sc2ccc(NC(=O)CCl)cc2)c1 | 0.743
N#C/C(=C\c1c(N2CCC(C(N)=O)CC2)nc2ccccn2c1=O)C(=O)NCc1ccco1 | -0.0915

Structure (SMILES) | z-score
COC(=O)c1ccc(NC(=S)N2CCC(C(N)=O)CC2)cc1 | -0.143
CCC1CCCCN1c1nc2c(C=O)c(C)nn2c2ccccc12 (centres undefined) | -0.289
Clc1ccc(-n2ncc3c(NCc4cccs4)ncnc32)cc1 | -0.31
COc1ccc(CNC(=O)COC(=O)CCOc2ccccc2)cc1 | -0.373
O=C(N/N=C\c1ccc(-c2ccc([N+](=O)[O-])cc2)o1)C1COc2ccccc2O1 (centres undefined) | -0.262
Cc1cc(OCC(=O)Nn2cnnc2)c(C)cc1Br | 0.279
O=C1CCCC2=C1C(c1cccs1)Nc1ccccc1N2 (centres undefined) | -0.235
CCOc1ccc(NC(=O)c2cccs2)c([N+](=O)[O-])c1 | -0.331
CS(=O)(=O)Nc1cccc(C(=O)CC2(O)C(=O)Nc3ccc(Br)cc32)c1 (centres undefined) | -0.938
COCCCn1nnnc1SCC(=O)Nc1nc(C)c(C)s1 | 0.0827
O=C(CSCCc1ccccn1)Nc1cccnc1 | -0.27
Cc1ccccc1Cn1cc(NC(=O)COc2ccccc2)cn1 | -0.325
CCN1CCN(C(c2cccs2)C(C)NS(=O)(=O)c2ccc(Br)cc2)CC1 (centres undefined) | -0.233
O=C(NCCC1=CCCCC1)c1ccc(Cl)c(S(=O)(=O)Nc2ccccc2)c1 | -0.0923
O=C(NNC(=O)c1ccco1)c1ccccc1 | -0.181
O=C(Nc1nnc(SCC(=O)N2CCCCC2)s1)c1cccs1 | 0.0108
CC(C)Cn1c(-c2cccs2)nc2nc3ccccc3nc21 | -0.713
CC1CCc2c(sc3nc(CSc4n[nH]c(N)n4)[nH]c(=O)c23)C1 (centres undefined) | -0.252
Cc1cc(NC(=O)Nc2ccc(F)c(Cl)c2)no1 | -0.2
O=C(Cn1nc(-c2cccc([N+](=O)[O-])c2)c2ccccc2c1=O)Nc1cccnc1 | 1.49
N#Cc1c(-c2ccccc2)nc(N2CCCCCC2)[nH]c1=O | 0.0595
Clc1ccc(Oc2nc(N3CCOCC3)nc(N3CCOCC3)n2)c(C2CCCCC2)c1 | -0.219

Structure (SMILES) | z-score
CN(CC(=O)Nc1ccncc1)S(=O)(=O)c1ccc(Br)cc1 | -0.284
O=C(CCSc1ccc(F)cc1)Nc1ccc(-n2cnnn2)cc1 | -0.733
COc1cc2c3nnc(-c4ccc(F)cc4)c-3cn(Cc3ccc(F)cc3)c2cc1OC | 0.162
O=C(CSc1nnc(Nc2ccccc2)s1)Nc1ccc(S(=O)(=O)N2CCOCC2)cc1 | -0.14
C=CCn1c(C(C)NC(=O)CC)nc2ccccc21 (centres undefined) | 0.484
Cc1ccc2cc(CN(Cc3ccccc3)Cc3nnnn3C3CCCC3)c(=O)[nH]c2c1 | -0.46
Cc1nnc(SCC(=O)Nc2nsc(-c3ccccc3)n2)s1 | 0.196
CCOc1cc(CNc2ccc3cn[nH]c3c2)ccc1OC | -0.245
Cc1cc(C(=O)N/N=C/c2ccc(Cl)c([N+](=O)[O-])c2)c(C)n1-c1ccc(F)cc1 | -0.561
COc1ccc(-c2noc(-c3cc4ccccc4oc3=O)n2)cc1 | 0.464
c1ccc(CN=C2NN=C(c3cc4ccccc4o3)CS2)cc1 | 0.253
O=C(Nc1ccccc1)N1CCCCC1c1cccnc1 (centres undefined) | -0.291
N/C(=N\OC(=O)COc1ccccc1Cl)c1ccc(Cl)cc1 | -0.273
COc1ccc(NC(=O)C(NS(=O)(=O)c2ccc3c(c2)CCCN3C(C)=O)C(C)C)c(OC)c1 (centres undefined) | -0.321
O=C1S/C(=C\C=C\c2ccco2)C(=O)N1c1ccccc1 | -0.214
C/C(=N\NC(=O)c1nonc1N)c1cccs1 | 0.127
Cc1[nH]n(-c2cccc(Cl)c2)c(=O)c1-c1ccc(Cl)cc1 | -0.719
CCN(CC(=O)NC1CCS(=O)(=O)C1)S(=O)(=O)c1ccc2ccccc2c1 (centres undefined) | -0.0621
O=C(Cc1ccc(Cl)cc1)NNc1c(F)c(F)cc(F)c1F | -0.451
COc1cccc(Nc2nnc(SCc3nc4ccccc4s3)s2)c1 | 0.163
O=C(COC(=O)/C=C/c1ccc(Cl)cc1)Nc1ccccc1-c1ccccc1 | -0.364
O=C(/C=C/c1ccccc1)NNC(=O)C1CC1 | 0.633

Structure (SMILES) | z-score
CC(=O)Oc1ccc(C(=O)[C@H]2[C@H]3C(=O)N(c4ccc5ccccc5c4)C(=O)[C@H]3[C@@H]3C=CC=NN32)cc1 | -0.0576
COc1ccc(C2C(C(C)=O)=C(O)C(=O)N2CCc2c[nH]c3ccccc23)cc1OC (centres undefined) | 0.0523
CCC(=O)Nc1ccc(C(=O)N/N=C/c2ccc([N+](=O)[O-])cc2)cc1 | -0.252
CC(C)(C)c1cc(N/C=C\c2nnnn2-c2ccc(Br)cc2)no1 | 0.0221
c1ccc(-c2cc(N3CCOCC3)nc3ccccc23)cc1 | 0.00698
Cc1cc(C)n(-c2cc(Oc3ccccc3)ncn2)n1 | -0.437
CC(=O)Nc1ccc(NC(=O)c2ccccc2F)cc1 | 0.0771
Cc1ccc(C(C(=O)NC2CCCCC2)N(Cc2ccco2)C(=O)Cc2c[nH]c3ccccc23)o1 (centres undefined) | -0.9
COC(=O)Oc1ccc(/C=C/C(=O)OC(C)C)cc1OC(=O)OC | -0.306
Cc1cc(C)c(NC(=O)CSc2nnc(-c3ccco3)n2N)c(C)c1 | 0.105
CSC(=S)N(C)C1CCS(=O)(=O)C1 (centres undefined) | 0.018
S=c1[nH]ncn1/N=C/c1ccccn1 | -0.282
Cc1cccc(-c2nnc(SCc3ccc(C#N)cc3)n2Cc2ccco2)c1 | -0.975
CN(C)C=Nc1nonc1-c1ncn[nH]1 | 0.1
O=C(CCN1C(=O)C2C3C=CC(C3)C2C1=O)NCC1CCCO1 (centres undefined) | 0.128
COC(=O)c1ccc(NC(=O)CN(C2CCCCC2)S(C)(=O)=O)cc1 | 0.505
CCN(CC)c1ccc(/C=N/NC(=O)Cc2cccs2)cc1 | 0.753
O=C(CCCN1C(=O)/C(=C/c2ccccc2Cl)SC1=S)NNC(=O)c1ccccc1 | -0.142
O=C(CSc1nc2c(c(=O)n1-c1ccc(Br)cc1)SCC2)Nc1nccs1 | -0.478
Cc1ccc(O)c(C2=NCCNC(C(F)(F)F)=C2)c1 | -0.194
Cc1c(NC(=O)c2ccc3c(c2)OCO3)c(=O)n(-c2ccccc2)n1C | -0.395
